The whole screen tested about 340,000 compounds, of which about 6,900 (2%) were called active. Rule as the data show it: active = inhibition above about 30%; inactive = below that, where a call was filed. The entries are a selection whose mix differs from that of the whole data set. The source gives no active or inactive call for entries shown without one.
Biological target: D(2) dopamine receptor (Homo sapiens) (UniProt P14416)
Assay: HTS Assay for Allosteric Antagonists of the Human D2 Dopamine Receptor: Primary Screen for Antagonists; also: 0% is about no effect
Details: HEK293 TREx D2 cells, calcium flux, dopamine EC80; at 10 µM; stronger effect = higher value
How it was run: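 HEK293 T-REx D2 cells, tet-induced, calcium dye no-wash. Cpd pintool add, 180 s kinetic, then EC80 DA, 180 s kinetic. Ca flux read.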

Chain of UniProt P14416 (P14416 whole entry, looked up): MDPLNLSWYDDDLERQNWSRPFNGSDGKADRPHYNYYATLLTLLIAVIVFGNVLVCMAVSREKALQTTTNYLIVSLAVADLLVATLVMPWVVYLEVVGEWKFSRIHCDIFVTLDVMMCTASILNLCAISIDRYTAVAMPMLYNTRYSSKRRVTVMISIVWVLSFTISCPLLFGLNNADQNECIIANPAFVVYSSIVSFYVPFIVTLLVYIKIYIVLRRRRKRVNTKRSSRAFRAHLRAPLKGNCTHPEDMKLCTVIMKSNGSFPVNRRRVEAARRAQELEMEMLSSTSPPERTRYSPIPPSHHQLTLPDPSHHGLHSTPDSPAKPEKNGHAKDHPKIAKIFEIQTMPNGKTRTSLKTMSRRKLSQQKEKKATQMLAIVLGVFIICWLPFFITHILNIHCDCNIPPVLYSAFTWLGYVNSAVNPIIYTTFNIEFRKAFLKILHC

Compared with O=C(C1CCCN(S(=O)(=O)c2cccs2)C1)N1CCN(c2cccc(Cl)c2)CC1 (stereo unspecified), O=C(Nc1ccc(F)c(Cl)c1)N1CCN(C(=O)c2nsc3ccccc23)CC1 is lower in inhibition: 8.38% for the first, -10.1% for the second.

Compared with Cc1ccc(C)c(N2CCN(c3ncnc4c3nc3n4CCCCC3)CC2)c1, Cc1ccc(C)c(N2CCN(S(=O)(=O)c3ccc4oc(=O)c5ncn(C)c5c4c3)CC2)c1 is lower in inhibition: 3.55% for the first, -21% for the second.

Going from CCN1c2ccccc2-n2cccc2C12CCN(C(=O)Nc1ccccc1C(F)(F)F)CC2 to CCc1ccccc1NC(=O)c1cc(S(=O)(=O)N(CC)c2ccccc2)ccc1F, the inhibition rises from -27.4% to 26.1%.

First: CCOc1ccc(OCC)c(NC(=O)C2CCCN(S(=O)(=O)c3ccc4c(c3)oc(=O)n4C)C2)c1 (stereo unspecified)
Second: CCN(CC)S(=O)(=O)c1ccc2c(c1)N(CC(=O)Nc1c(C)cccc1C)C(=O)CO2
The inhibition of the first is higher: -8.62% for the first, -22.2% for the second.

Going from CCOc1ccc(CNC(=O)Cn2c(=O)c3cccn3c3ccc(F)cc32)cc1 to CCc1ccc(NCc2cc3cc4c(cc3n(CC(=O)Nc3ccc(Cl)cc3)c2=O)OCO4)cc1, the inhibition falls from 19.6% to -7.56%.

Going from Cc1cccc(-c2nc(SCCCOc3ccccc3Cl)n3[nH]c(=O)cc3n2)c1 to CCCNC(=O)c1ccc2c(c1)N(Cc1cccc(C)c1)C(=O)c1ccccc1S2, the inhibition falls from 15.1% to -8.73%.

First: CC(=O)Nc1ccc(Nc2ncnc3c2c(-c2ccccc2)cn3-c2ccccc2)cc1
Second: CCOC(=O)c1c(Oc2ccc(C(=O)OC)cc2)nnc(-c2ccccc2)c1-c1ccccc1
The inhibition of the first is lower: -8.18% for the first, 9.58% for the second.

First: Cc1cc(C)cc(-n2c(SCC(=O)N3CCc4ccccc43)nc3c([nH]c4ccccc43)c2=O)c1
Second: Cc1ccc(C(=O)COC(=O)c2cc(-c3ccccc3)nc3ccccc23)cc1C
The inhibition of the first is higher: -2.55% for the first, -5.5% for the second.

First: Cc1ccc(S(=O)(=O)c2nnn3c2nc(NCc2ccc(F)cc2)c2sccc23)cc1
Second: CC1CCN(c2nc3c(S(=O)(=O)c4ccccc4)nnn3c3ccsc23)CC1
The inhibition of the first is higher: -8.09% for the first, -14% for the second.

First: COc1cc(NC(=O)Cn2c(=O)n(Cc3ccccc3OC)c(=O)c3cccnc32)cc(OC)c1
Second: COc1ccccc1NC(=O)CCCOc1cc(=O)n(C)c2ccccc12
The inhibition of the first is higher: 11.6% for the first, 10.8% for the second.

First: O=C(CC1N=C2c3ccccc3N=C(SCC(=O)Nc3cccc(C(F)(F)F)c3)N2C1=O)NCc1cccs1 (stereo unspecified)
Second: COC(=O)c1ccc(NC(=O)CC2C(=O)N(c3ccc(Cl)cc3)C(=O)N2Cc2cccs2)cc1 (stereo unspecified)
The inhibition of the first is higher: 17.6% for the first, 12.7% for the second.

Compared with COc1ccc(CCNC(=O)c2nn(-c3ccc(C)cc3)c(=O)c3c2c2ccccc2n3C)cc1OC, Cc1ccc(Cn2c(=O)n(CCCCC(=O)NCCc3ccc(Cl)cc3)c(=O)c3ccccc32)cc1 is lower in inhibition: 8.76% for the first, -2.77% for the second.

First: Cc1ccc(C)c(Cn2c(=O)n(Cc3ccccc3)c(=O)c3c(C)c(C)sc32)c1
Second: Cc1ccc(C)c(N(C)C(=O)c2cn(C)c(=O)c3ccccc23)c1
The inhibition of the first is higher: 6.34% for the first, -23% for the second.

Going from CCc1ccccc1NC(=O)Nc1nnc(N2CCCC2)s1 to CCc1ccccc1NC(=O)Cn1nnc(C(=O)OC)c1C(=O)OC, the inhibition falls from 24.2% to -24.8%.

Going from COc1ccc(-c2nc(C)c(CCNC(=O)C(=O)Nc3cccc(F)c3)s2)cc1OC to COc1ccc(NC(=O)CSc2ncc(-c3ccc(Cl)cc3)[nH]2)cc1OC, the inhibition rises from 1.6% to 2.4%.

Going from Cc1cc(S(=O)(=O)Nc2cccc(C(=O)O)c2)c(C)c(S(=O)(=O)c2ccccc2)c1 to CCOC(=O)c1sc2ccccc2c1S(=O)(=O)Nc1ccc(N(C)C)cc1, the inhibition rises from -7.71% to 1.26%.

First: COC(=O)c1cc(NC(=O)CCc2c(C)nc3c4c(C)cc(C)nc4nn3c2C)cc(C(=O)OC)c1
Second: CCOC(=O)c1sc(N2C(=O)c3oc4cc(C)c(C)cc4c(=O)c3C2c2cccc(O)c2)nc1C (stereo unspecified)
The inhibition of the first is lower: -9.12% for the first, 0.863% for the second.

First: Cc1cc(C)cc(OCC(=O)NCC(c2ccc(Cl)cc2)N2CCCCC2)c1 (stereo unspecified)
Second: Cc1cccc(NC(=O)c2cc(S(=O)(=O)N3CCCCC3)c[nH]2)c1C
The inhibition of the first is lower: 10.4% for the first, 18.9% for the second.

Going from O=C(NCc1ccccc1)c1cc(-c2cccc(Cl)c2)on1 to CCN(C(=O)Cn1c(C(=O)OC)cc2oc3ccccc3c21)c1cccc(C)c1, the inhibition falls from 5.08% to 0.0733%.

First: CC1CCc2c(sc3nnn(Cc4ccc(F)cc4)c(=O)c23)C1 (stereo unspecified)
Second: COc1ccc(S(=O)(=O)N2CCN(c3ccc(F)cc3)CC2)cc1-c1noc(C)n1
The inhibition of the first is lower: 10% for the first, 13.9% for the second.

First: Cn1c(=O)c2c(n3c4ccccc4nc13)NC(=O)CC2c1ccccc1F (stereo unspecified)
Second: CCc1nnc2c(Nc3ccc(Br)c(C)c3)nc3ccccc3n12
The inhibition of the first is higher: 7.73% for the first, -2.27% for the second.

Going from O=C(CNC(=O)c1ccccc1Cl)OCc1cc(=O)n2ccsc2n1 to Brc1csc(CN2CCc3nc(Nc4ccccc4)ncc3C2)c1, the inhibition falls from -3.29% to -5.64%.

First: Cc1cccc(Cn2c(SCc3ccc(C(=O)N4CCCCCC4)cc3)nc3ccncc32)c1
Second: COc1cc(CN(C(=O)c2cc3ccccc3oc2=O)C2CCS(=O)(=O)C2)cc(OC)c1OC (stereo unspecified)
The inhibition of the first is higher: 17.1% for the first, -22.5% for the second.

For O=C1CC(C(=O)Nc2ccc(F)c(Cl)c2)N=C(N2CCCCC2)N1 (stereo unspecified), the inhibition was active: 30.3%.
With COc1ccc(S(=O)(=O)NNc2nc(C)cc(C)n2)cc1Br the inhibition was active: 52.4%.
For C#CCN(C)Cc1ccccc1, the inhibition was active: 31.9%.
For COc1cccc(NC(=O)[C@H](Cc2ccccc2)NC(=O)[C@@H]2Cc3ccccc3CN2)c1, the inhibition was active: 35.4%.
For COc1ccc(Cl)cc1NC(=O)NCC1CCN(C(=O)OC(C)(C)C)CC1, the inhibition was active: 95.4%.
Cc1cc(C)n(C(=O)c2ccc(NC(=O)CC(C)C)cc2)n1 was tested, and the inhibition was active: 32.9%.
With Cc1cc2nnc(SCC(=O)N3C(C)CCCC3C)n2c(N)n1 (stereo unspecified) the inhibition was active: 30.4%.
CCN1CCN(CCCN(Cc2ccco2)C(=S)Nc2cc(Cl)ccc2C)CC1 was tested, and the inhibition was active: 42.3%.
For CCc1nnc(NC(=O)CN2CCN(c3nc(-c4ccccc4)cs3)CC2)s1, the inhibition was active: 31.5%.
In the case of CC1CCC(=O)N(CCSc2ccccc2)CC1 (stereo unspecified), the inhibition is reported as active: 33.3%.
CCS(=O)(=O)Nc1cccc(-c2cc(-c3ccccc3)c3cc(C)ccc3n2)c1 was tested, and the inhibition was active: 30.3%.
With Cc1nonc1C(=O)N/N=C/c1cccc(O)c1 the inhibition was active: 33.1%.
In the case of COc1cc(C(=O)OCc2ccc(C)cc2)cc(NC(=O)c2cccs2)c1OC, the inhibition is reported as active: 37.6%.
O=C(N/N=C/c1ccc(O)cc1)c1csc2ccccc12 was tested, and the inhibition was active: 32%.
O=C1c2ccccc2C(=O)N1CC1c2ccccc2CCN1S(=O)(=O)c1cnc[nH]1 (stereo unspecified) was tested, and the inhibition was active: 46.4%.

From PubChem BioAssay AID485344 (National Center for Advancing Translational Sciences (NCATS), 2010)
